# Results as given in PubChem BioAssay (NCI).
# Where “and” joins values, the source holds several entries; their conditions need not be identical. Equal values may be shown once.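 Cultured in 96-well plates, cells were exposed to test compound for 48 hours across five concentrations. GI50: concentration for 50% inhibition of growth. The concentration for full growth arrest is given as TGI.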 Numbered stars: 1 amine (or outer) side, 2 acyl side, 3 side chain; on linkers, the order of the positions; unused ones are H or OH. Bridge positions count the residues as written; N and C are the ends. Square brackets hold non-standard residues; d marks the D form. Peptide text beside a SMILES is read from it. I, II: the chains in the order shown. Actinocin(9to1) = Cc1c2oc3c(C)ccc(C(=O)[*:1])c3nc-2c(C(=O)[*:2])c(N)c1=O; Hyp = O=C(O)[CH]1C[CH](O)CN1; NMeV = CN[CH](C(=O)O)C(C)C; Sar = CNCC(=O)O
# Test system: NCI-H322M lung
# Experiment: growth of human tumour cells (NCI), 48 h
SMILES,TGI,GI50
O[C@@H]1CCC[C@@H]2NC[C@@H](c3ccc4c(c3)OCO4)[C@H]12,> 100 µM,–
CCSc1nc(=S)n(-c2ccccc2)c(C)c1C(C)=O,> 100 µM,–
COc1ccc(/C=C2\SC(=Nc3ccccc3)NC2=O)cc1,> 100 µM,44.7 µM
CC(=O)/C=C/C1=C(c2csc3ccccc23)c2ccccc2CC1,86.4 µM,23.5 µM
O=C(c1cccnc1)N1N=C(c2ccccc2)CC1(O)c1cc(F)c(Cl)cc1Cl (stereo not given),> 100 µM,–
Cc1cc(Nc2ccc(NS(C)(=O)=O)cc2)c2c(ccc3nccc32)[nH]1,53 µM,–
CCCCCCCCCCCCCCCCCCNC(=S)/N=C/c1c(O)c2ccccc2[nH]c1=O,36.2 µM,–
Cc1nc2ccc(F)cc2c(Cl)c1CCCl,> 100 µM,–
CCOC(=O)CCN1C(=O)C(=O)N(c2ccc(OC)cc2)C1=S,> 100 µM,–
O=CN1N=C(c2cccc(Nc3ccnc4cc(Cl)ccc34)c2)CC1c1ccccc1 (stereo not given),> 100 µM,0.626 µM
CCCN(CCC)C(=O)c1nc(N)nc(-c2ccc(OC)cc2)c1-c1ccc(OC)cc1,> 100 µM,–
CCOc1ccc(NCC2CC/C(=C\c3ccccc3OC)C2=O)cc1 (stereo not given),29.3 µM,–
CC(C)C(=O)/C=C/S/C=C/C(=O)C(C)C,> 100 µM,–
O=P(Nc1ccccc1)(Oc1ccccc1)N(CCCl)CCCl (stereo not given),> 100 µM,–
C=C1C(=O)O[C@H]2[C@H]1CC/C(COC(=O)OC/C1=C/CC[C@@]3(C)O[C@H]3[C@H]3OC(=O)[C@@H](CN(C)C)[C@@H]3CC1)=C\CC[C@@]1(C)O[C@@H]21,26 µM,13.3 µM
CN(O)C(=O)CCCC(=O)NCC(C)(C)CNC(=O)CCCC(=O)N(C)O,> 100 µM,–
O=C(c1ccco1)c1c(C(F)(F)F)n([O-])c2cc(C(F)(F)F)ccc2[n+]1=O,3.83 µM,1.97 µM
O=[N+]([O-])c1cc(F)ccc1S(=O)(=O)c1ccccc1,> 10 µM,–
Cc1[nH]c2ccccc2c1/C=N/NC(=O)c1cccc(I)c1,70.2 µM,–
COC1CCC(OC)C(C2(C3CC(OC)CCC3OC)OC(=O)c3ccccc32)C1 (stereo not given),> 100 µM,–
CN1CCc2c(sc3ncn(Nc4ccc(Cl)cc4)c(=N)c23)C1,> 100 µM,–
CCN(CC)CC1CN=C(N)O1 (stereo not given),> 100 µM,–
CC(C)=CC(=O)N[C@H]1CC[C@]2(C)C3CC[C@]4(C)C(C(C)N(C)C)=CCC4C3CCC2[C@H]1O (stereo not given in full),14.3 µM,3.62 µM
COC(=O)[C@]1(c2ccc(N(C)C)cc2OC)C[C@@H]2CCCN(CCc3c1[nH]c1ccccc31)C2,> 61.8 µM,–

SMILES,TGI,GI50
COC(=O)c1c2c(c(C)[n+]([O-])c1C)C(=O)C=C(NCc1cccc(Cl)c1)C2=O,1.51 µM,0.36 µM
N/N=C(\c1nc2ccc(Cl)cc2[nH]c1=O)C(O)c1ccc(Cl)c(Cl)c1 (stereo not given),> 100 µM,–
O=C(O)/C(=C\c1ccc(O)cc1)c1cccc2ccccc12,> 100 µM,–
Nn1c(=O)[nH]c2ncn(Cc3ccccc3)c2c1=O,> 100 µM,–
CC(C)c1cccc(O)c(=O)c1,> 75 µg/mL and > 100 µM,38.4 µg/mL
COC(=O)Nc1nc2ccc(C(=O)c3ccccc3)cc2[nH]1,> 100 µM,0.583 µM
COc1ccc(NC(=O)c2sc3nc(C)c(C(=O)/C=C/c4cccc(OC)c4)cc3c2N)cc1,15.5 µM,1.64 µM
O=[N+]([O-])/C=C(\CS(=O)(=O)c1ccccc1)c1ccc2c(c1)OCO2,> 100 µM,–
COc1cc(C(C)c2cc3c(cc2OCCNC(=O)COc2cc4c(cc2C(C)c2cc(OC)c(OC)c(OC)c2)OCO4)OCO3)cc(OC)c1OC (stereo not given),> 100 µM,–
CC1(C)C2CCC1C(=O)[C@@]1(C=CC(=O)CC1)C2 (stereo not given in full),> 100 µM,–
CC1(C)OC(=O)C(C#N)=C1C[n+]1ccccc1,> 10 µM,–
Cc1ccc(S(=O)(=O)N/N=C2\CC3CC4CCC2C4C3)cc1 (stereo not given),> 100 µM,–
O=C(Nc1ccccc1-c1nn(CN2CCNCC2)c(=S)n(CN2CCNCC2)c1=O)C(F)(F)F,49.9 µM,–
Cc1cc(S(=O)(=O)Nc2nncn2-c2ccc(Cl)cc2)c(S)cc1Cl,> 10 µM,–
CN1Cc2cc(O)c(O)cc2C(O)C1 (stereo not given),> 100 µM,–
COc1ccc(-c2ncn(C[Si](C)(C)C)c2-c2ccc(OC)cc2)cc1,18.6 µM,–
COc1c(Br)cc2ccccc2c1-c1c(OC)c(Br)cc2ccccc12,> 100 µM,–
Cc1cc(OCCOCCC(F)(F)P(=O)(O)O)ccc1CCc1cnc2c(N)nc3cc(CCC(=O)O)ccc3c2c1,> 100 µM,> 100 µM
O=c1oc2cc(OC/C(=N/O)c3ccc(F)cc3)ccc2c2ccccc12,39 µM,17.5 µM
O=C1C(=O)c2ccccc2C(O)=C1CCCc1ccc(C2CCCCC2)cc1,40.5 µM,11.1 µM
COC(=O)C(Cc1c[nH]c2ccccc12)NP(=O)(O)OCC1OC(n2cc(Br)c(=O)[nH]c2=O)CC1O (stereo not given),> 100 µM,–
C=CCOC(OCC=C)/C(Br)=C/C,> 100 µM,–
COC1=C(Cl)C(=O)c2c(O)ccc(O)c2C1=O,8.75 µM,–
Cc1ccc(NC(=O)/C(Cc2cc(=O)oc3cc(O)ccc23)=N\NC(C)(C)C)cc1C,> 100 µM,–

SMILES,TGI,GI50
O=C(CN1CCCCC1)Nc1ccc2c(c1)C1Oc3ccccc3CC1CO2 (stereo not given),> 100 µM,–
"Cc1c2oc3c(C)ccc(C(=O)NC4C(=O)NC(C(C)C)C(=O)N5CC(O)CC5C(=O)N(C)CC(=O)N(C)C(C(C)C)C(=O)OC4C)c3nc-2c(C(=O)NC2C(=O)NC(C(C)C)C(=O)N3CC(O)CC3C(=O)N(C)CC(=O)N(C)C(C(C)C)C(=O)OC2C)c(N)c1=O (stereo not given) (I: TV[Hyp][Sar][NMeV] / II: TV[Hyp][Sar][NMeV]; ester I:1-I:C, II:1-II:C; linker I:N-II:N via Actinocin(9to1); configuration not given here)",> 1 µM,–
OC12c3ccccc3C1CCCCCCCCCC21OCCO1 (stereo not given),> 100 µM,–
O=C(/C=C1\C(=O)N(Cc2ccccc2)c2ccccc21)c1ccc(OCCN2CCCCC2)cc1,24 µM,11.7 µM
COC(=O)C1CCC(=O)N1C(c1cc(OC)c(OC)c(OC)c1)c1cccc2ccccc12 (stereo not given),> 100 µM,–
O=c1[nH]nc(Cc2ccccc2)n1/N=C/c1cccnc1,> 100 µM,–
Cn1c(-c2ccccc2)c(/C=C/C2=[N+](C)c3ccccc3C2(C)C)c2ccccc21,9.04 µM,2.69 µM
O=C(O)c1c2c(cc3c1CC1(Cc4cc5c(cc4C1=O)CCC5)C3)CCC2 (stereo not given),> 100 µM,–
CCOC(=O)C12C(C(=O)OC)=C(C)N(NC(=O)Nc3ccccc3)C1(N)N(NC(=O)Nc1ccccc1)C(C)=C2C(=O)OC (stereo not given),> 96.1 µM,–
CO[C@H]1C[C@](C)(O)Cc2cc3c(c(O)c21)C(=O)c1c(O)cc2c(c1C3=O)O[C@@H]1O[C@@]2(C)[C@H](O)[C@@H](N(C)C)[C@@H]1O,6.42 µM and 14.8 µM,2.37 µM
CCCCSC1=N/C(=C\c2ccc(N(C)C)cc2)C(=O)N1,> 100 µM,–
COc1cc(C(=O)O[C@H](C(=O)NCCN(C)CCNC(=O)[C@@H](OC(=O)c2cc(OC)cc3c(C)cccc23)[C@]2(C)CO2)[C@]2(C)CO2)c2cccc(C)c2c1,0.828 µM,0.255 µM
Cc1ccc2nc3cc(C)c(=O)cc-3sc2c1,> 100 µM,–
O=C(Nc1ccc(F)cc1)Nc1ccc(Br)c(C(F)(F)F)c1,11.5 µM,2.87 µM
CC(C)(C)NC(=O)/C(=C\Sc1ccccc1)c1ccccc1,> 100 µM,–
C[n+]1c2ccccc2nc2ccccc21,21.5 µM,7.27 µM
COC1=CC(c2ccc[nH]2)=N/C1=C\c1[nH]c(C)c(CC(=O)OCc2ccccc2)c1C,3.21 µM,0.44 µM
COC(=O)C(CC(=O)Nc1ccc(Cl)c(Cl)c1)C(=O)C(=O)Nc1ccc(Cl)c(Cl)c1 (stereo not given),> 100 µM,–
CC(=O)OC12c3ccccc3-c3ccccc3C1C(C(=O)O)C2C(=O)O (stereo not given),> 10 µM,–
Nc1nc(SCc2ccccc2Cl)cc(C(=O)O)n1,> 100 µM,–
CCOc1ccc(C(C)c2cc3c(cc2OC)OCO3)cc1 (stereo not given),> 100 µM,–
CC(C(=O)c1ccccc1)C1(O)C(=O)Nc2ccc(Cl)cc21 (stereo not given),> 100 µM,–
CCC(CC)(CO)CNc1cc(Cl)nc(N)n1,> 100 µM,–
Cc1ccc2c(c1)C(=O)c1c-2c(OCCCN(C)C)nc2ccccc12,12.3 µM,2.36 µM

SMILES,TGI,GI50
CC(=O)NNc1nc(C)c(C(=O)/C=C/c2ccc(Cl)cc2)s1,> 100 µM,–
Cc1cc(C)c(C(=O)O)c(SSc2cc(C)cc(C)c2C(=O)O)c1,> 100 µM,–
COc1ccc2c(c1OC)C(C(Cl)(Cl)Cl)N1CCc3cc4c(cc3C1=C2)OCO4 (stereo not given),> 100 µM,–
C1CN(P2(N3CC3)=NP(N3CC3)(N3CC3)=NP(N3CC3)(N3CC3)=N2)CCO1 (stereo not given),> 100 µM,–
Nc1ccc2ccc(N3CCNCC3)nc2n1,> 100 µM,–
COc1ccc2oc(-c3ccc(OC)c(OC)c3OC)cc(=O)c2c1,> 100 µM,–
CC(=O)O[C@H]1C(=O)[C@@]2(C)[C@H]([C@H](OC(=O)c3ccccc3)[C@]3(O)C[C@H](OC(=O)[C@H](O)[C@@H](NC(=O)c4ccccc4)c4cccc(N(C)C)c4)C(C)=C1C3(C)C)[C@]1(OC(C)=O)CO[C@@H]1C[C@@H]2O,> 75 µM,–
COC(=O)[C@@H](C)[C@H]1CC[C@@](C)(CCC2=C(C)CC3C=C(C)CCC3C2(C)C)OO1 (stereo not given in full),3.1 µM,–
N#Cc1cc(Sc2ccc(N)c(C#N)c2)ccc1N,58.3 µM,–
O=[N+]([O-])c1cc2ccc(N(CCO)CCO)nc2nc1N(CCO)CCO,> 100 µM,–
C[C@H]1COCCN1c1cc(C2(S(=O)(=O)C3CC3)CC2)nc(-c2ccc(NC(=S)NCCO)cc2)n1,32.4 µM,0.0422 µM
C/C(CC(=O)Nc1ccccc1C)=N/NS(=O)(=O)c1ccc(C)cc1,> 100 µM,–
COC(=O)[C@]1(c2cc3ccccc3[nH]2)CC2CN(C(=O)OCc3ccccc3)C1CC2=O (stereo not given in full),77.3 µM,–
Cc1cccc(C)c1N1C(=O)C(=O)C(c2nc3ccccc3s2)/C(=N/NC(=O)c2ccccc2O)C1=O (stereo not given),> 100 µM,–
CCCCCCCCCCCCCCCCOP(=O)([O-])OCC[N+](C)(C)C,17.8 µM and 45.7 µM,4.62 µM
CCOC1NC(=O)Oc2cc3ccccc3cc21 (stereo not given),> 100 µM,–
COc1cc2cc(C(=O)N3CC(CCl)c4ccc(N(C)C)cc43)[nH]c2c(OC)c1OC (stereo not given),0.529 µM,–
Cc1[nH]c(N)nc(=S)c1CCC(=O)O,> 100 µM,–
NC(N)=NC(N)=NCCCc1ccco1,> 500 µM,189 µM
CCn1c2c(c3ccccc31)[C@@H](c1ccc(Cl)cc1)CC1C(=O)N(c3ccccc3)C(=O)C21 (stereo not given in full),> 100 µM,–
COc1ccc(C(=O)CC2=Nc3nnc(CCCCCCCc4nnc5n4C(=O)C(CC(=O)c4ccc(OC)cc4)=N5)n3C2=O)cc1,> 100 µM,–
CCC1(OC(=O)CN)C(=O)OCc2c1cc1n(c2=O)Cc2cc3ccccc3nc2-1 (stereo not given),0.921 µM and 0.494 µM,0.218 µM
O=C(C/C(=N/O)C(F)(F)F)c1cccs1,> 100 µM,–
